For the assay, the system named is MYC. Briefly: cells. The following applies: Homo sapiens, MV4-11, 4 h, read-out: Myc IC50 (μM).

Consider 19 molecules from patent US9763922B2 (priority 2014, dated 2017).

Usually IC50 stands for the concentration at which inhibition is half-maximal. On to `CC(=O)N1CCc2c(c(N3CC(CC(F)F)Cc4cc(-c5cnn(C)c5)ccc43)nn2[C@H]2CCOC2)C1` (stereo partly drawn) [Example 81, 1-(3-(3-(2,2-difluoroethyl)-6-(1-methyl-1H-pyrazol-4-yl)-3,4-dihydroquinolin-1(2H)-yl)-1-((S)-tetrahydrofuran-3-yl)-6,7-dihydro-1H-pyrazolo[4,3-c]pyridin-5(4H)-yl)ethanone], for which the IC50 is 0.28 µM. Consider `CC(=O)N1CCc2c(c(N3C[C@@H](CC(F)F)Cc4cc(-c5cnn(C)c5)ccc43)nn2[C@H]2CCOC2)C1` [Example 83, (S,R)-1-[3-[3-(2,2-difluoroethyl)-6-(1-methylpyrazol-4-yl)-3,4-dihydro-2H-quinolin-1-yl]-1-tetrahydrofuran-3-yl-6,7-dihydro-4H-pyrazolo[4,3-c]pyridin-5-yl]ethanone], for which the IC50 was determined as 0.83 µM.

Regarding `CC(=O)N1CCc2c(c(N3CC(C)Cc4cc(-c5cnn(C)c5)c(C#N)cc43)nn2[C@H]2CCOC2)C1` (stereo partly drawn) [Example 84, 1-(5-acetyl-1-((S)-tetrahydrofuran-3-yl)-6,7-dihydro-4H-pyrazolo[4,3-c]pyridin-3-yl)-3-methyl-6-(1-methylpyrazol-4-yl)-3,4-dihydro-2H-quinoline-7-carbonitrile], the IC50 was found to be 0.088 µM.

Turning to `CC(=O)N1CCc2c(c(Nc3cccc(-c4cnn(C)c4)c3)nn2CCC(F)(F)F)C1` [Example 84, 1-(5-acetyl-1-((S)-tetrahydrofuran-3-yl)-6,7-dihydro-4H-pyrazolo[4,3-c]pyridin-3-yl)-3-methyl-6-(1-methylpyrazol-4-yl)-3,4-dihydro-2H-quinoline-7-carbonitrile], the IC50 was 0.39 µM.

Consider `CC(=O)N1CCc2c(c(Nc3cccc(-c4cnn(C)c4)c3)nn2CC2CC2(F)F)C1` (stereo not shown) [Example 85, 1-(5-acetyl-1-tetrahydropyran-4-yl-6,7-dihydro-4H-pyrazolo[4,3-c]pyridin-3-yl)-3-methyl-6-(1-methylpyrazol-4-yl)-3,4-dihydro-2H-quinoline-7-carbonitrile], for which the IC50 turned out to be 0.45 µM. As for `CC(=O)N1CCc2c(c(N3CCC(CO)c4cc(-c5cnn(C)c5)ccc43)nn2C2CCOC2)C1` (stereo not shown) [Example 87, 1-[3-[4-(hydroxymethyl)-6-(1-methylpyrazol-4-yl)-3,4-dihydro-2H-quinolin-1-yl]-1-tetrahydrofuran-3-yl-6,7-dihydro-4H-pyrazolo[4,3-c]pyridin-5-yl]ethanone], the figure is 14.3 µM; as for `CC(=O)N1CCc2c(c(N3CCNc4cc(-c5cnn(C)c5)ccc43)nn2[C@H]2CCOC2)C1` [Example 93, 1-[3-[6-(1-methylpyrazol-4-yl)-3,4-dihydro-2H-quinoxalin-1-yl]-1-[(3S)-tetrahydrofuran-3-yl]-6,7-dihydro-4H-pyrazolo[4,3-c]pyridin-5-yl]ethanone], 1.25 µM; as for `CC(=O)N1CCc2c(c(N3CCN(C)c4cc(-c5cnn(C)c5)ccc43)nn2[C@H]2CCOC2)C1` [Example 95, 1-[3-[4-methyl-6-(1-methylpyrazol-4-yl)-2,3-dihydroquinoxalin-1-yl]-1-[(3S)-tetrahydrofuran-3-yl]-6,7-dihydro-4H-pyrazolo[4,3-c]pyridin-5-yl]ethanone], 0.474 µM.

`CC(=O)N1CCc2c(c(Nc3ccc(-c4ccnn4C)cc3)nn2CC2CC2)C1` [Example 96, 1-[3-(5-chloro-3,4-dihydro-2H-quinolin-1-yl)-1-[(3S)-tetrahydrofuran-3-yl]-6,7-dihydro-4H-pyrazolo[4,3-c]pyridin-5-yl]ethanone]: the IC50 was 0.45 µM. For `CC(=O)N1CCc2c(c(N3CCCc4c3ccc(-c3cnn(C)c3)c4Cl)nn2[C@H]2CCOC2)C1` [Example 97, 1-[3-[5-chloro-6-(1-methylpyrazol-4-yl)-3,4-dihydro-2H-quinolin-1-yl]-1-[(3S)-tetrahydrofuran-3-yl]-6,7-dihydro-4H-pyrazolo[4,3-c]pyridin-5-yl]ethanone], the IC50 came to 0.149 µM. Turning to `CC(=O)N1CCc2c(c(Nc3ccc(-c4ccc(F)cc4)cc3)nn2CC2CC2)C1` [Example 97, 1-[3-[5-chloro-6-(1-methylpyrazol-4-yl)-3,4-dihydro-2H-quinolin-1-yl]-1-[(3S)-tetrahydrofuran-3-yl]-6,7-dihydro-4H-pyrazolo[4,3-c]pyridin-5-yl]ethanone], the IC50 came to 0.71 µM. For the molecule `CC(=O)N1CCc2c(c(Nc3ccc(C4=CCCCC4)cc3)nn2CC2CC2)C1` [Example 99, 1-[3-[3-ethyl-6-(1-methylpyrazol-4-yl)-3,4-dihydro-2H-quinolin-1-yl]-1-tetrahydrofuran-3-yl-6,7-dihydro-4H-pyrazolo[4,3-c]pyridin-5-yl]ethanone], the IC50 is 1.42 µM. On to `CC(=O)N1CCc2c(c(N3CCC(C)c4cc(-c5cnn(C)c5)c(Cl)cc43)nn2[C@H]2CCOC2)C1` (stereo partly drawn) [Example 102, 1-[3-[7-chloro-4-methyl-6-(1-methylpyrazol-4-yl)-3,4-dihydro-2H-quinolin-1-yl]-1-((S)-tetrahydrofuran-3-yl]-6,7-dihydro-4H-pyrazolo[4,3-c]pyridin-5-yl]ethanone], for which the 50% inhibitory concentration (IC50) stood at 0.154 µM. Regarding `CC(=O)N1CCc2c(c(N3CC[C@H](C)c4cc(-c5cnn(C)c5)c(C#N)cc43)nn2[C@H]2CCOC2)C1` [Example 104, (S, S)-1-(5-acetyl-1-tetrahydrofuran-3-yl-6,7-dihydro-4H-pyrazolo[4,3-c]pyridin-3-yl)-4-methyl-6-(1-methylpyrazol-4-yl)-3,4-dihydro-2H-quinoline-7-carbonitrile], the IC50 was 0.085 µM. In the case of `CC(=O)N1CCc2c(c(Nc3ccc(-c4ccccn4)cc3)nn2CC2CC2)C1` [Example 104, (S, S)-1-(5-acetyl-1-tetrahydrofuran-3-yl-6,7-dihydro-4H-pyrazolo[4,3-c]pyridin-3-yl)-4-methyl-6-(1-methylpyrazol-4-yl)-3,4-dihydro-2H-quinoline-7-carbonitrile], the IC50 worked out at 0.42 µM. Turning to `CC(=O)N1CCc2c(c(Nc3ccc(-c4cccc(C(C)(C)O)c4)cc3)nn2C)C1` [Example 107, 1-[3-[4-methyl-6-(1-methylpyrazol-4-yl)-3,4-dihydro-2H-quinolin-1-yl]-1-(oxetan-3-yl)-6,7-dihydro-4H-pyrazolo[4,3-c]pyridin-5-yl]ethanone], the IC50 was found to be 1.13 µM. For `CC(=O)N1CCc2c(c(Nc3ccc(-c4cncs4)cc3)nn2C)C1` [Example 110, 1-[3-[3-methyl-6-(1-methylpyrazol-4-yl)-3,4-dihydro-2H-quinolin-1-yl]-1-tetrahydrofuran-3-yl-6,7-dihydro-4H-pyrazolo[4,3-c]pyridin-5-yl]ethanone], the IC50 came to 0.63 µM. As for `CC(=O)N1CCc2c(c(Nc3ccc(-c4cccc(F)c4)cc3)nn2C)C1` [Example 116, (S, R)-1-[3-[4-ethyl-6-(1-methylpyrazol-4-yl)-3,4-dihydro-2H-quinolin-1-yl]-1-tetrahydrofuran-3-yl-6,7-dihydro-4H-pyrazolo[4,3-c]pyridin-5-yl]ethanone], the figure is 1.08 µM. For `CC(=O)N1CCc2c(c(N3CC(C4CC4)Cc4cc(-c5cnn(C)c5)ccc43)nn2[C@H]2CCOC2)C1` (stereo partly drawn) [Example 117, 1-[3-[3-cyclopropyl-6-(1-methylpyrazol-4-yl)-3,4-dihydro-2H-quinolin-1-yl]-1-((S)-tetrahydrofuran-3-yl)-6,7-dihydro-4H-pyrazolo[4,3-c]pyridin-5-yl]ethanone], the IC50 was 0.256 µM.
